# According to PubChem BioAssay AID1461 (National Center for Advancing Translational Sciences (NCATS), 2008):
# Among all 220,000 compounds or so, about 2,300 (1%) were called active. Inconclusive results (about 6%) are left out. The call rests on the fitted dose curve; in most records, active means well fitted inhibition curve with a large enough effect; inconclusive means small, poorly fitted or top-dose-only effect, or effect the other way; inactive means no such curve, though single readings can be large or run the other way. The entries are a selection whose mix differs from that of the whole data set. The source holds several records for some structures; these can differ, active in one and inactive in another.
# Target: Neuropeptide S receptor (Homo sapiens) (UniProt Q6W5P4)
# Test: qHTS Assay for Antagonists of the Neuropeptide S Receptor: cAMP Signal Transduction; further: nearly all actives have a fitted effect of over 50% in size
# Settings: CHO-NPSR cells, cAMP TR-FRET, antagonist mode; series mostly up to 38.3 µM; activity change, negative = inhibition: at the top concentration
# Excerpt: NIH Chemical Genomics Center [NCGC] NIH Molecular Libraries Probe Production centers Network [MLPCN] MLPCN Grant: X01-DA026210-01 Assay Submitter (PI): Heilig, Markus Alexander NCGC Assay Overview: Neuropeptide S receptor (NPSR), previously known as GPR154, is a recently de-orphanized G protein coupled receptor. Its endogenous ligand is the 20 amino acids peptide Neuropeptide S (NPS). […] NPS and its receptor are found in various tissues. Specifically they are highly expressed in brain areas that have been implicated in modulation of arousal, stress and anxiety. Central administration of NPS in mice produces an unusual profile of activity by inducing wakefulness and arousal, while at the same time suppressing anxiety. Therefore, NPSR may represent a novel drug target for the treatment of sleep and anxiety disorders. To identify NPSR antagonists, we developed a cell-based cAMP assay. NPS can stimulate the production of cAMP in Chinese hamster ovary cells stably expressing NPS receptor. This change in intracellular cAMP level can be detected by a homogeneous LANCE cAMP assay based on the TR-FRET (time resolved fluorescence resonance energy transfer) between a europium-labeled cAMP tracer complex and a cAMP-specific antibody labeled with Alexa Fluor 647. The europium-labeled cAMP tracer complex is formed by the tight interaction between Biotin-cAMP (b-cAMP) and streptavidin labeled with Europium-W8044 chelate (Eu-SA). Light pulse at 320 nm excites the europium of the cAMP tracer and the energy emitted is transferred to the Alexa molecule bound to the cAMP antibody, generating a TR-FRET signal at 665 nm. Residual energy from the europium will produce a light at 620 nm. The native unlabeled cAMP from cell lysates competes with the europium-cAMP tracer for antibody binding and reversely reduces the emission signal of Alexa by interrupting FRET between the two labeled molecules. Both emission signals from the FRET donor (620 nm) and the acceptor (665 nm) can be detected by a plate reader in the TRF mode. Expression of result in fluorescence ratio (665 nm/620 nm) helps to normalize differences due to cell density and reagent dispensing. This assay was successfully optimized to a 1536-well plate format.
# NCGC Assay Protocol Summary: A Chinese hamster ovary (CHO) cell line stably expressing the NPS receptor (CHO-NPSR) was obtained from Dr. Heilig lab at NIAAA and maintained in F-12 Kaighn's media (Invitrogen, Carlsbad, CA, 21127) supplemented with 10 % FBS, 100 units/ml penicillin, 100 ug/ml streptomycin and 250 ug/ml geneticin at 37C, 5% CO2 in a humidified atmosphere. Before the assay, aliquots of cells were frozen and stored at -135C. The assay was performed in 1536-well format. Data are reported for both the ratio of the two emission wavelengths, and also for the component 'donor' channel, Em2=620. Data were normalized to the controls for basal activity (DMSO only) and 100% inhibition (No NPS control). IC50 values were determined from concentration-response data modeled with the standard Hill equation. NPS 1536-well assay protocol: (1) Fresh or frozen CHO-NPSR cells were suspended in F-12 Kaighn's media supplemented with 10 % FBS, 100 units/ml penicillin and 100 ug/ml streptomycin. Cells were plated at 4 ul/well (1200 cells) to white, tissue culture treated 1536-well plates, and then cultured at 37C, 5 % CO2 for 16 to 30 hours. (2) Add 23 nl/well of compound in DMSO solution. The final titration for each compound was between 0.6 nM and 46 uM. (3) Add 1 ul of stimulation reagent (1X HBSS buffer, 5 mM HEPES, 0.1% BSA, 500 uM RO-201724 (Sigma-Aldrich, B8279), 1.5% Alexa 647-labeled anti-cAMP antibody (from Perkin Elmer), 100 nM NPS) (4) Incubation at 37C, 5 % CO2 for 60 min. (5) Add 1 ul/well detection reagent. Detection reagent was prepared by adding biotin labeled cAMP (4%), streptavidin labeled with Europium-W8044 chelate (1.33%) and TritonX-100 (1%) to detection buffer. […]
# On the % scale 0 is the no-effect control and ±100 the full control effect; potency means the concentration at half of the fitted maximal effect.
# UniProt Q6W5P4, sequence (Q6W5P4 whole entry, looked up): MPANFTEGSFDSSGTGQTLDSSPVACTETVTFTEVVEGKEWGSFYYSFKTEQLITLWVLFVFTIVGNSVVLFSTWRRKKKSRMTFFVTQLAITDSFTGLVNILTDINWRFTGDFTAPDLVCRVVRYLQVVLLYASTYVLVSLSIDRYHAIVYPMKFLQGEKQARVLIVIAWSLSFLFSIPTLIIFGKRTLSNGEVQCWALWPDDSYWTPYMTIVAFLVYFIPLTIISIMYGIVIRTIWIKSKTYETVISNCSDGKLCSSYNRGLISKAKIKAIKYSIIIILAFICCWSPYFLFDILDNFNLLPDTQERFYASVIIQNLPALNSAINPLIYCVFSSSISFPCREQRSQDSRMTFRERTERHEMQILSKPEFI
SMILES,"activity change, negative = inhibition",Potency
Cc1ccccc1OCc1n(CC(=O)OC2CC(C)CCC2C(C)C)c2ccccc2[n+]1C (configuration not stated),inactive: -52.3%,
CCO[C@@H]1OC(C(=O)N2CCCCCCC2)=C[C@H](C2CCCCC2)[C@H]1CCCO,inactive: 51.5%,
CN1CCC(=C2c3ccccc3CC(=O)c3sccc32)CC1,,inactive
S=C(Nc1ccccc1)Nc1nccs1,inactive: -19.6% [at 46.1 µM],
O=C(NCc1ccccc1)C1=C[C@H](c2ccc(C(F)(F)F)cc2)C[C@H](OCc2ccc(CO)cc2)O1,inactive: 43.6%,
CCOC(=O)/C(C#N)=C/c1c(OCC)n(CC)c2ccccc12,inactive: -40.1%,
O=C1C=C(Nc2ccccc2)c2ccccc2C1=O,,active: 10 µM
CCNC(=O)/C(=C\c1ccc2c(c1)OCO2)NC(=O)c1ccc(Br)cc1,inactive: 2.08% [at 46.1 µM],
O=C(C1=C[C@@H](c2ccc(C(F)(F)F)cc2)C[C@@H](OCCCCO)O1)N1CCN(Cc2ccccc2)CC1,inactive: 57.6%,
O=C1CCc2cc(OCCCCc3nnnn3C3CCCCC3)ccc2N1,,inactive
CCN(CCCNC(=O)C1c2ccccc2C(=O)N(CCOC)C1c1ccc(F)cc1)Cc1ccccc1 (configuration not stated),,active: 10 µM
O=C(N/C(=C/c1cccc([N+](=O)[O-])c1)C(=O)N1CCCCC1)c1cccs1,inactive: 44.9%,
O=C(Nc1ccccc1)C1=C[C@H](c2ccc(C(F)(F)F)cc2)C[C@H](OCc2ccc(CO)cc2)O1,inactive: -48.9%,
CCOC(=O)c1[nH]c(C)c(CCC(=O)O)c1C,inactive: 0.162% [at 46.1 µM],
CCOC(=O)/C(C#N)=C1\C=CN(C)C(C)=N1,inactive: -1.3% [at 46.1 µM],
C/C=C(/C)C(=O)O[C@@H]1c2c(ccc3ccc(=O)oc23)OC(C)(C)[C@@H]1OC(=O)/C(C)=C\C,inactive: -33.8%,
CN(C)CC[C@@H](c1ccc(Cl)cc1)c1ccccn1,inactive: 8.86% [at 46.1 µM],
CCOC(=O)c1ccc(N=c2sc(C(=O)OC)cc(=O)n2CCCN2CCOCC2)cc1,inactive: -10.8% [at 46.1 µM],
O=C(C1=C[C@@H](c2coc3ccccc3c2=O)C[C@@H](OCCCCO)O1)N1CCN(Cc2ccc3c(c2)OCO3)CC1,inactive: 8.79%,
COC(=O)c1sccc1NC(=O)/C=C/c1ccc(Cl)cc1Cl,inactive: 1.87% [at 46.1 µM],
Cc1ccccc1C(OCCN(C)C)c1ccccc1 (configuration not stated),,inactive
CC(=O)SC1CC2=CC(=O)CCC2(C)C2CCC3(C)C(CCC34CCC(=O)O4)C12 (configuration not stated),inactive: -41.4%,
CCN(CC)S(=O)(=O)c1ccc(NC(=O)Nc2cccc(C(F)(F)F)c2)cc1,,active: 15.8 µM
CCOC(=O)c1c(NC(=O)c2ccc(N3C(=O)[C@@H]4[C@H](C3=O)[C@H]3C=C[C@@H]4C3)cc2)sc2c1CCCC2,inactive: -11.3%,

SMILES,"activity change, negative = inhibition",Potency
COCC(=O)O[C@]1(CCN(C)CCCc2nc3ccccc3[nH]2)CCc2cc(F)ccc2[C@@H]1C(C)C,,active: 10 µM
Cc1ccc(NC(=O)C2=C(c3ccccc3)S(=O)(=O)CCS2(=O)=O)cc1,,active: 10 µM
CCO[C@H]1OC(C(=O)NCc2ccccc2)=C[C@@H](c2ccc(Br)cc2)[C@@H]1CCCO,inactive: 2.45%,
CCO[C@H]1OC(C(=O)NCc2ccccc2)=C[C@@H](c2ccc(C(F)(F)F)cc2)[C@@H]1CCCO,inactive: 51.7%,
CC(=O)OCC1=C(C(=O)O)N2C(=O)[C@@H](NC(=O)Cc3cccs3)[C@H]2SC1,inactive: -6.98%,
CCC(=O)/C=C1/Sc2ccc(OC)cc2N1CC,inactive: -15.9% [at 46.1 µM],
COc1ccc(NS(=O)(=O)c2ccc(NC(=S)NC(=O)/C=C/c3ccccc3)cc2)nn1,,active: 7.94 µM
[2H]c1c([2H])c([2H])c(-c2nc(N3CCCCCC3)sc2C(=O)c2ccccc2)c([2H])c1[2H],inactive: -28.3% [at 46.1 µM],
Cc1ccc(Cl)cc1NC(=O)COC(=O)C12CC3CC(CC(C3)C1)C2,inactive: -20.9% [at 46.1 µM],
NC(CO)C(=O)NNCc1ccc(O)c(O)c1O (configuration not stated),inactive: 0.362%,
O=C(O)/C=C/c1cnc[nH]1,inactive: -15%,
CN(C)CCCNC(=O)c1ccc(-c2nc(-c3ccc(Cl)cc3)cs2)cc1,,active: 10 µM
CC(=O)n1cc([C@H]2C=C(C(=O)N3CCN(Cc4ccccc4)CC3)O[C@@H](OCc3ccc(CO)cc3)C2)c2ccccc21,inactive: 48.8%,
N=C1S/C(=C\c2ccco2)C(=O)N1c1nccs1,,active: 6.31 µM
O=C(O)CCn1cc(/C=C/C(=O)c2ccc(Cl)cc2)c(-c2cccc(Br)c2)n1,inactive: -57.8%,
Cc1[nH]c2ccc(F)cc2c1CCN(Cc1cccnc1)C(=S)Nc1cccc(F)c1,,active: 10 µM
COc1cc(/C=C2/CCC/C(=C\c3cc(O)c(OC)c(Cl)c3)C2=O)cc(Cl)c1O,,active: 7.94 µM
CC(N=C(NC#N)Nc1ccncc1)C(C)(C)C (configuration not stated),inactive: 17.1%,
CC1CCC/C=C/C(=O)c2c(O)cc(O)cc2CC(=O)O1 (configuration not stated),,active: 5.01 µM
COc1ccc(CNC(=O)CSc2nc(-c3ccccc3)cc(-c3cccs3)c2C#N)cc1,,active: 10 µM
CC(C)(C)[C@@H]1C=C(C(=O)NCc2ccccc2)O[C@H](OCc2ccc(CO)cc2)C1,inactive: 38.5%,
CN(C)CCCN1c2ccccc2Sc2ccc(Cl)cc21,inactive: -0.486% [at 46.1 µM],
Nc1ccn([C@@H]2O[C@H](CO)[C@@H](O)[C@@H]2O)c(=O)n1,inactive: -19.3%,
